A number of entries come with more than one value. The list is limited to them. There may be further records. Values given together repeat one measurement (runs, samples, wells, individuals or studies). Results filed as inconclusive are left out. How the source made its calls, unless noted: active means hit-call score of the fitted dose curve at least 0.9, where 1 is the maximum; inactive means score below 0.9.

Chain of UniProt P03372 (P03372 whole entry, looked up, the tested form may be a part): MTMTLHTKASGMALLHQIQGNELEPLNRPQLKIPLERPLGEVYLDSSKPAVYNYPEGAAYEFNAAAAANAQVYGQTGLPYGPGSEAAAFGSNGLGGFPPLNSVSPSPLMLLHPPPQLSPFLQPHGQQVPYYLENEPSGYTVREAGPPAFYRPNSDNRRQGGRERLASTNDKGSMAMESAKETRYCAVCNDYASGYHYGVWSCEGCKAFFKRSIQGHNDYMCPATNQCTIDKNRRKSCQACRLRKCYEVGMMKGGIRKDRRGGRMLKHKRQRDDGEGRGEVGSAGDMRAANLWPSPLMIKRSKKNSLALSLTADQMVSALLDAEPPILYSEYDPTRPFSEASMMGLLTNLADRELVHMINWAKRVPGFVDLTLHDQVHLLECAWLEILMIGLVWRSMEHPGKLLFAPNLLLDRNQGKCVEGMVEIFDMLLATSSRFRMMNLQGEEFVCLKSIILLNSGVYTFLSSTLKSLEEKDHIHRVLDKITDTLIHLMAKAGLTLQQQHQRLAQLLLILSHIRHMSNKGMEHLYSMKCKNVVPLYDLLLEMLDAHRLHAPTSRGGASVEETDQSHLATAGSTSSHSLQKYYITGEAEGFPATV

Tested on in the first test: not listed separately
The test is described as follows: ATG_ERE_CIS: Attagene CIS-FACTORIAL HepG2 Assay for Estrogen Response Element (ERE) (AID 2282940). To be noted: HepG2 ERE cis-reporter, Attagene RNA transcript; actives raise or lower the signal. An outline of the steps: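 Cells used were human hepatoma HepG2, transfected with multiple reporter transcription units under cis-regulatory promoters. Reporter mRNA, read 24 h post-dosing via fluorescent RT-PCR products on capillary electrophoresis, was fitted bidirectionally relative to DMSO.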
Turning to `C[C@]12CCC(=O)C=C1CC[C@@H]1[C@@H]2CC[C@]2(C)C(=O)CC[C@@H]12`, the AC50 (commonly the midpoint of the concentration-response curve, whichever way the signal moves) was “active: 38.7, 214, 17.6, 8.96 nM [separate samples]”.
On the same count and under the same terms, the value for `CCCCCCCCCc1ccc(O)cc1` was “active: 4.31, 6.44, 1.65, 6.32 µM [separate samples]”; that for `C[C@]12CCC(=O)C=C1CC[C@@H]1[C@@H]2CC[C@@]2(C)[C@H]1CC[C@]2(C)O` was “active: 8.52, 47.9, 48.5, 7.79 nM [separate samples]”.

Another test has as its target Estrogen receptor (Homo sapiens) (UniProt P03372). The test is described as follows: ATG_ERa_TRANS: Attagene TRANS-FACTORIAL HepG2 Assay for human Estrogen Receptor alpha (ERa) (AID 2282970; active means hit-call score of the fitted dose curve at least 0.9, where 1 is the maximum). To be noted: HepG2 Attagene TRANS ERa GAL4 reporter, mRNA. In outline:
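Signal derives from fluorescence of labelled reporter PCR fragments separated by capillary electrophoresis. HepG2 cells transiently carrying multiple GAL4-UAS reporter units were treated 24 hours, and induction above DMSO baseline was fitted as activity.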
Consider `CCC(C)(c1ccc(O)cc1)c1ccc(O)cc1`, for which the AC50 entry was “active: 118, 375, 256, 384 nM [separate samples]”.
Turning to `CCC(=O)O[C@H]1CC[C@H]2[C@@H]3CCC4=CC(=O)CC[C@]4(C)[C@H]3CC[C@]12C`, the half-maximal activity concentration (AC50) entry is “active: 9.14, 9.09, 4.33, 40.4 nM [separate samples]”.
On the same count and under the same terms, next, `C[C@]12CCC(=O)C=C1CC[C@@H]1[C@@H]2CC[C@@]2(C)[C@H]1CC[C@]2(C)O`: “active: 8.37, 8.27, 55, 8.04 nM [separate samples]”.

These data come from PubChem BioAssay (EPA / NIEHS).
